From the supplement of paper PMC3334620
In all, about 33,000 sequences were measured (“E-score (-0.5 to 0.5)”: median about -0.017, highest 2% from about 0.3 on). The list shows a part of the results.

Molecular target: T1, Sut1 (UniProt P53032)
T1 sequence: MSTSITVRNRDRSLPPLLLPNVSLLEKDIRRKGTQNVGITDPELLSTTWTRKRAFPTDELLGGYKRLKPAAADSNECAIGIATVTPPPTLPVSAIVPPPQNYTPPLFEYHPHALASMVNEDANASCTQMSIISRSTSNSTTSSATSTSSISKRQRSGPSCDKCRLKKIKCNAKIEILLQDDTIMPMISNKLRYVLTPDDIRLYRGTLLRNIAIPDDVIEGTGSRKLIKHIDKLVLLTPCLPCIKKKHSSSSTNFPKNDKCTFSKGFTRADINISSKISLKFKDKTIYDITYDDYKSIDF
Test: PBM E-score (8-mer binding enrichment) (E-score (-0.5 to 0.5)); higher = stronger / more preferred TF binding; most listed sequences are background and not binding sites
Conditions: protein concentration: 200 nM; construct: GST-full length
Procedure: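 Universal 'all 10-mer' protein binding microarrays (Agilent AMADID 015681) probed with GST-tagged S. cerevisiae TFs (full-length or DBD) made by in vitro transcription/translation (PURExpress), about 100-200 nM. Bound TF was detected with fluorescent anti-GST. Each ungapped 8-mer (which stands for itself and its reverse complement) is scored by the PBM enrichment score (E-score), a modified Wilcoxon-Mann-Whitney statistic from -0.5 to +0.5, computed with the Universal PBM Analysis Suite. Scale: above 0.35 generally sequence-specific binding.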

Sequence	PBM E-score
AACTTCCT	0.0824
CAGTAGAA	-0.0531
CTATTCTA	0.223
AGAATATG	0.137
GCCGTCAC	-0.0545
GATCCAAC	-0.00322
CGTTTACC	0.0614
CTGAGCAG	-0.2
CTTACAAC	0.196
AACGCCGC	-0.217
CCCTATAG	-0.203
GTAGTAAC	0.0611
AAGAAGAC	0.0584
GGACCGAC	0.0958
CACAGTGG	-0.0778
CCCGATCA	-0.133
AACCCACA	0.0844
CAGAATTC	0.138
GACCTGGC	-0.208
GGGATAGA	-0.114
GATGTGCC	-0.183
AACATGGA	-0.0336

Sequence	PBM E-score
CGGCCCTC	-0.216
GGGATCAC	-0.338
AGTAACGG	0.198
AGGAGTAT	-0.0966
CCGATAGC	0.0526
AGATAGCC	-0.064
CCCGACGC	-0.175
ATCTTCTG	0.12
CGCAGACC	-0.189
TACCCATA	-0.151
GCTAGCAC	-0.104
CATCCATA	-0.0827
GGGTGTGA	-0.145
CCTCCGCA	-0.205
GCATTGAC	-0.198
ACAATCGG	0.259
CACAGGAA	0.00605
ACTTAGCA	0.0328
CCACCTCA	-0.227
AATCTCAA	0.0555
AACACGAC	-0.0446
GGTGTTAC	-0.0536

Sequence	PBM E-score
GAGCTTCC	0.279
ATGCTGGA	0.0682
AGACAAAA	0.0785
GCTCCTCC	-0.138
CACCGCAA	0.178
AAGTGACA	0.131
GCAGCGGA	0.0776
GCACTCGC	-0.0684
ACTTTTTC	0.123
CAGCCTCA	-0.125
AAAATAGC	0.0485
AGTAACTG	0.0218
AGCAAACT	0.0398
ACGGACAA	0.272
CGATCGCG	0.0537
CGTGTTGC	-0.185
CGGTTCTC	-0.0227
CCGCTACG	-0.044
ACCTGTTG	-0.0722
GAGGCACC	-0.341
CAAGGGGC	-0.17
ACACAATG	0.0741

Sequence	PBM E-score
TAATGACA	0.12
ACATCCGA	0.136
AAGACGCG	0.0741
CACTTATC	-0.00811
ACTGGTAG	0.0376
CAATTTAA	0.317
CTGGGCAA	0.00054
ATATTCAC	0.172
GGCGTACA	-0.142
ACGACTTC	0.0627
CCACGTCC	-0.248
CATTAGAC	-0.151
AGAGCGAA	0.0259
GAGGGGTA	-0.286
GCTCATGA	-0.172
AGCGAGTA	0.0674
GGATGGCC	-0.311
AGTGCCAA	-0.219
ACTGGCAC	-0.183
GATCTCAA	0.0447
CTGAGACC	-0.314
GGGTTTAC	0.0633

Sequence	PBM E-score
TATAAATA	0.343
ATACCTAA	0.274
ATACGCCG	-0.0434
AACCTGCA	0.036
AACGGGCG	-0.159
AATACATA	0.21
GGTTACAA	0.176
AAAGCACA	0.0274
AAACTAGC	-0.0714
GGATAAAC	0.2
CGCAGGTC	-0.134
CCCCGTGA	0.0534
GAGAATAA	0.11
AAGAAATC	0.0735
AATGGGGG	-0.271
AGTTCGAT	0.181
AAGAAAGC	0.126
ACAGCCAT	-0.174
ACGGTAAG	-0.00505
GCGGGTAC	-0.0833
ACAACACA	0.00311
